Out of some 390,000 compounds screened, about 4,700 (1.2%) were called active. Inconclusive means that the source gave no clear call. Such entries were picked first, then a sample of the others. The call rests on the fitted dose curve; in most records, active means well fitted inhibition curve with a large enough effect; inconclusive means small, poorly fitted or top-dose-only effect, or another doubt; inactive means no such curve, though single readings can be large or run the other way. Potencies beside an inconclusive call are fits to weak or partial responses and may not hold up.
target: DNA polymerase eta (Homo sapiens) (UniProt Q9Y253); assay: qHTS for Inhibitors of Polymerase Eta; settings: recombinant Pol eta, fluorescent DNA replication assay; series mostly up to 114 µM
UniProt Q9Y253, sequence (Q9Y253 whole entry, looked up): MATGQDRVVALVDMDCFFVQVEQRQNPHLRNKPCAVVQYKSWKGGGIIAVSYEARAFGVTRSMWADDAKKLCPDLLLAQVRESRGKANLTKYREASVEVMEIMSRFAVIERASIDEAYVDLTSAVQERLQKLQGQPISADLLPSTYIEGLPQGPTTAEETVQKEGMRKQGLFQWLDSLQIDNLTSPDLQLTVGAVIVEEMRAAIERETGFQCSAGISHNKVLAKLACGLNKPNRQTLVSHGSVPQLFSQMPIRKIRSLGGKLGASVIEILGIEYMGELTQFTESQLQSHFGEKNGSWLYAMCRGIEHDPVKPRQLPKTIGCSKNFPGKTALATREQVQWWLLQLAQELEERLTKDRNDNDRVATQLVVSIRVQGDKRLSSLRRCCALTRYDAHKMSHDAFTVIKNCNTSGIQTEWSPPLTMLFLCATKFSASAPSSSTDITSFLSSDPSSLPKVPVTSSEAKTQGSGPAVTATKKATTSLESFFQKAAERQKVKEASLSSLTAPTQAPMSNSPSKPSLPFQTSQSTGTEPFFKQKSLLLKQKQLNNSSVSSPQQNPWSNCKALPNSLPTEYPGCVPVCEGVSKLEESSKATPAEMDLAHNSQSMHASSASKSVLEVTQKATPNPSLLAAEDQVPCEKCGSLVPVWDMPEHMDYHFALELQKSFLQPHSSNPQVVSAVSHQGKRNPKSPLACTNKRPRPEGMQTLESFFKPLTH
How it was run: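 Pol eta (10 nM) was preincubated with compounds for 15 min at room temperature, after which fluorescent replication substrate (50 nM final) was added to start the reaction. Fluorescence was read kinetically at 0 and 10 min.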
Potency means the concentration at half of the fitted maximal effect; tags describe the fitted curve by direction and shape.

**Q.** With `COc1ccccc1/C=C1/SC(=O)N(CCC(=O)Nc2ccc(S(=O)(=O)Nc3nccs3)cc2)C1=O` as the molecule, how does the Potency read?
**A.** Its Potency is active: 20 µM.

**Q.** Which Potency does the source give for `O=C(CCN1Cc2ccccc2C1)c1ccc2c(c1)OCCO2` here?
**A.** The Potency was “inactive”.

**Q.** `CC1CCC(C(C)C)C(OCC(O)CNC(C)C)C1` (stereo unspecified) was tested. Which Potency did it give?
**A.** Its Potency is inconclusive: 89.1 µM [inhibitor, partial curve, poor fit].

**Q.** Which Potency does the source give for `NC(=O)c1ccc([N+](=O)[O-])cc1SCc1ccccc1` here?
**A.** Its Potency is inconclusive: 14.1 µM [inhibitor, full curve, poor fit].

**Q.** Which Potency does the source give for `COc1cc2c(cc1OC)CN(C(=S)Nc1ccc(OC(F)F)cc1)CC2` here?
**A.** Its Potency is inconclusive: 79.4 µM [inhibitor, partial curve, poor fit].

**Q.** How did the Potency turn out when `COc1ccccc1[C@@H]1C(c2ccc(F)cc2)=NN(c2ccccc2)[C@H]1C(=O)N1CCOC1=O` was run?
**A.** Its Potency is inconclusive: 79.4 µM [inhibitor, partial curve, poor fit].

**Q.** For `Cc1c(NC(=O)C(=O)/C=C(\O)c2ccc(Br)cc2)c(=O)n(-c2ccccc2)n1C`, which Potency is on record?
**A.** The Potency was inconclusive: 39.8 µM [inhibitor, partial curve, poor fit].

**Q.** `CCOc1ccc2nc(Nc3nc(CSc4nnnn4-c4ccccc4)cc(=O)[nH]3)nc(C)c2c1` was tested. Which Potency did it give?
**A.** The Potency was inconclusive: 3.16 µM [inhibitor, full curve].

**Q.** For `COc1ccc(OC)c(/C=C2\S/C(=N/NC(=O)c3ccc4ccccc4c3)NC2=O)c1`, which Potency is on record?
**A.** The Potency was active: 20 µM.

**Q.** Which Potency does the source give for `Cc1ccc(-c2nc(Cn3c(SCc4ccc(F)cc4)nc4cccnc43)c(C)o2)cc1` here?
**A.** The Potency was “inactive”.

**Q.** `O=C(Nc1ccc(S(=O)(=O)Nc2nccs2)cc1)c1ccc(=O)[nH]c1` was tested. Which Potency did it give?
**A.** The Potency was active: 20 µM.

**Q.** Which Potency does the source give for `CCOC(=O)c1cc2c(=O)n3ccccc3nc2n(CC2CCCO2)c1=NC(=O)c1ccc(F)cc1` (stereo unspecified) here?
**A.** The Potency was “inactive”.

**Q.** How did the Potency turn out when `O=C1N2c3ccccc3CCc3cccc(c32)C1(O)C(F)(F)F` (stereo unspecified) was run?
**A.** The Potency was inconclusive: 89.1 µM [inhibitor, partial curve, poor fit].

**Q.** With `CC(=O)OCCCNc1cc(Sc2nc3ccccc3s2)c2nonc2c1[N+](=O)[O-]` as the molecule, how does the Potency read?
**A.** The Potency was inconclusive: 25.1 µM [inhibitor, partial curve].

**Q.** With `COc1cccc(NC(=O)c2cc(-c3ccc(OC)cc3OC)nc3ccccc23)c1` as the molecule, how does the Potency read?
**A.** Its Potency is inconclusive: 89.1 µM [inhibitor, partial curve, poor fit].

**Q.** `Brc1cc2c(cc1C1Nc3ccccc3C3C=CCC31)OCO2` (stereo unspecified) was tested. Which Potency did it give?
**A.** Its Potency is inconclusive: 39.8 µM [inhibitor, single point].

**Q.** For `Cc1ccc(Nc2nc(NCCO)nc(N3CCCC3)n2)cc1`, which Potency is on record?
**A.** Its Potency is inconclusive: 100 µM [inhibitor, partial curve, poor fit].

**Q.** For `CCN(CC)c1ccc2cc(-c3nc(-c4ccccc4)no3)c(=O)oc2c1`, which Potency is on record?
**A.** The Potency was inconclusive: 39.8 µM [inhibitor, partial curve, poor fit].

**Q.** `Cn1c(=NC(=O)c2ccco2)sc2ccccc21` was tested. Which Potency did it give?
**A.** Its Potency is inconclusive: 89.1 µM [inhibitor, single point].

**Q.** How did the Potency turn out when `O=C(CN1CCN(S(=O)(=O)c2ccc(Br)cc2)CC1)c1ccc(O)c(O)c1` was run?
**A.** Its Potency is inconclusive: 20 µM [inhibitor, full curve, poor fit].

**Q.** Which Potency does the source give for `Cc1ccc2nc(NC(=O)c3ccc(Cn4cc(Cl)cn4)o3)sc2c1` here?
**A.** The Potency was inconclusive: 31.6 µM [inhibitor, partial curve, poor fit].

**Q.** Which Potency does the source give for `O=c1oc(-c2ccccc2)cc(Cl)c1Cl` here?
**A.** Its Potency is “inactive”.

**Q.** How did the Potency turn out when `COc1ccc(-c2cc(=O)oc3c(O)c(O)ccc23)cc1` was run?
**A.** The Potency was active: 7.94 µM.

**Q.** For `O=C(Nc1cccnc1Cl)c1ccc(=O)oc1`, which Potency is on record?
**A.** The Potency was active: 20 µM.

**Q.** Which Potency does the source give for `CCOC(=O)c1ccc(NC(=O)CC2Nc3cc(C)c(C)cc3NC2=O)cc1` (stereo unspecified) here?
**A.** The Potency was “inactive”.

**Q.** For `Cn1c(CNC(=O)c2ccc3c(c2)OCO3)nnc1SCC(=O)Nc1ccc(F)cc1F`, which Potency is on record?
**A.** Its Potency is “inactive”.

**Q.** `CC(/C=N/NC(=O)CSc1nc2ccccc2n1C)=C\c1ccco1` was tested. Which Potency did it give?
**A.** The Potency was active: 14.1 µM.

**Q.** With `CCOC1=C/C(=C/c2c(N)n3nc(-c4ccccc4)sc3nc2=O)C=CC1=O` as the molecule, how does the Potency read?
**A.** Its Potency is active: 28.2 µM.

**Q.** With `O=C(Nc1ccc(F)cc1)c1ccc(=O)[nH]n1` as the molecule, how does the Potency read?
**A.** Its Potency is “inactive”.

**Q.** `CC(=O)Nc1ccc(S(=O)(=O)N(C)c2ccc(OCCOc3cccc(C)c3)cc2)cc1` was tested. Which Potency did it give?
**A.** Its Potency is active: 20 µM.

**Q.** `O=C(CSc1cn[nH]n1)Nc1cccc(C(=O)O)c1` was tested. Which Potency did it give?
**A.** The Potency was “inactive”.

**Q.** Which Potency does the source give for `Cc1cccc(-n2cnc3c(c2=O)c2nc4ccccc4nc2n3Cc2ccco2)c1` here?
**A.** Its Potency is inconclusive: 20 µM [inhibitor, partial curve, poor fit].

**Q.** With `Cc1nn(S(=O)(=O)c2ccc(C(C)C)cc2)c(C)c1S(=O)(=O)N1CCCCC1` as the molecule, how does the Potency read?
**A.** The Potency was “inactive”.

**Q.** With `COc1ccc(-c2nnc(SCC(=O)Nc3ccc(C)c(Cl)c3)nc2-c2ccc(OC)c(OC)c2)cc1OC` as the molecule, how does the Potency read?
**A.** The Potency was “inactive”.

**Q.** With `CCC(C)(C)NC(=O)C(c1ccc(OC)cc1)N(C(=O)CCC(=O)Nc1cc(C)on1)c1ccc(F)cc1` (stereo unspecified) as the molecule, how does the Potency read?
**A.** Its Potency is inconclusive: 79.4 µM [inhibitor, partial curve, poor fit].

**Q.** `Cc1ccccc1NC(=O)c1c2c(nc3ccccc13)CCC2` was tested. Which Potency did it give?
**A.** The Potency was inconclusive: 50.1 µM [inhibitor, partial curve, poor fit].

**Q.** With `CC(=O)Oc1ccc(C(=O)[C@H]2[C@H]3C(=O)N(c4cccc5ccccc45)C(=O)[C@H]3[C@@H]3C=CC=NN32)cc1` as the molecule, how does the Potency read?
**A.** Its Potency is inconclusive: 25.1 µM [inhibitor, partial curve, poor fit].

**Q.** `CCCCCCOc1ccc(NC(=O)CC2C(=O)N(CC)C(=S)N2Cc2ccco2)cc1` (stereo unspecified) was tested. Which Potency did it give?
**A.** Its Potency is inconclusive: 79.4 µM [inhibitor, partial curve, poor fit].

**Q.** With `O=C(c1ccc(F)c(F)c1)N1CCCc2ccccc21` as the molecule, how does the Potency read?
**A.** Its Potency is “inactive”.

**Q.** Which Potency does the source give for `O=C(CSc1ncnc2sc3c(c12)CCC3)Nc1ccccc1C(=O)O` here?
**A.** The Potency was inconclusive: 56.2 µM [inhibitor, partial curve, poor fit].

**Q.** With `Cc1cc(-c2n[nH]c(=S)n2/N=C/C(Cl)=C/c2ccccc2)n[nH]1` as the molecule, how does the Potency read?
**A.** The Potency was inconclusive: 15.8 µM [inhibitor, full curve, poor fit].

**Q.** With `O=c1oc2ccccc2c(Nc2cc3ccccc3cc2O)c1[N+](=O)[O-]` as the molecule, how does the Potency read?
**A.** Its Potency is inconclusive: 17.8 µM [inhibitor, full curve, poor fit].

**Q.** With `CCOC(=O)C1=C(NC(=S)NC(=O)c2ccccc2)c2ccccc2CC1C(C)C` (stereo unspecified) as the molecule, how does the Potency read?
**A.** Its Potency is inconclusive: 50.1 µM [inhibitor, partial curve, poor fit].

**Q.** For `CC(=O)c1ccc(NC(=O)CSc2ccc(-c3ccco3)nn2)cc1`, which Potency is on record?
**A.** The Potency was inconclusive: 28.2 µM [inhibitor, single point].

**Q.** Which Potency does the source give for `CC(OC(=O)Cc1ccccc1F)C(=O)Nc1ccc(Cl)cn1` (stereo unspecified) here?
**A.** The Potency was “inactive”.

**Q.** Which Potency does the source give for `C=CCOc1cccc(C2C(C(=O)c3ccco3)=C(O)C(=O)N2Cc2ccco2)c1` (stereo unspecified) here?
**A.** Its Potency is inconclusive: 20 µM [inhibitor, full curve].

**Q.** For `CCC(C)(C)NC(=O)C(c1ccc(OC)cc1)N(C(=O)CCC(=O)Nc1cc(C)on1)c1cc(OC)ccc1OC` (stereo unspecified), which Potency is on record?
**A.** Its Potency is inconclusive: 79.4 µM [inhibitor, partial curve, poor fit].

**Q.** For `CC1CCN(S(=O)(=O)c2ccc3c(c2)oc(=O)n3CC(=O)N2CCCCC2)CC1`, which Potency is on record?
**A.** Its Potency is “inactive”.

**Q.** For `CC(/C=N/NC(=O)c1ccc(CN2c3cccc4cccc(c34)S2(=O)=O)cc1)c1ccccc1` (stereo unspecified), which Potency is on record?
**A.** Its Potency is inconclusive: 35.5 µM [inhibitor, partial curve, poor fit].

**Q.** With `O=C1Nc2ccc(Br)cc2/C1=C/C(=O)c1ccccc1` as the molecule, how does the Potency read?
**A.** Its Potency is inconclusive: 39.8 µM [inhibitor, single point].

**Q.** `S=C1Nc2ccccc2CS1` was tested. Which Potency did it give?
**A.** The Potency was “inactive”.

**Q.** With `COc1ccc(CN(CCO)CCO)cc1[N+](=O)[O-]` as the molecule, how does the Potency read?
**A.** The Potency was “inactive”.

**Q.** With `CN(C)CCNC(=O)/C(=C/c1ccc(-c2ccc(Cl)cc2Cl)o1)NC(=O)c1ccccc1` as the molecule, how does the Potency read?
**A.** Its Potency is “inactive”.

**Q.** Which Potency does the source give for `CC1=C(C(=O)Nc2ccccc2)C(c2ccc(Cl)cc2)n2c(s/c(=C/c3cccc(OCC(=O)O)c3)c2=O)=N1` (stereo unspecified) here?
**A.** The Potency was active: 56.2 µM.

**Q.** `Cc1ccccc1/C=C\c1nc2ccccc2c(=O)[nH]1` was tested. Which Potency did it give?
**A.** Its Potency is inconclusive: 56.2 µM [inhibitor, partial curve].

**Q.** With `Cc1ccc(S(=O)(=O)/N=C(\N)Nc2nc(C)c3ccccc3n2)cc1` as the molecule, how does the Potency read?
**A.** Its Potency is inconclusive: 25.1 µM [inhibitor, partial curve, poor fit].

**Q.** `COc1ccc2nc(NC(=O)c3ccc([N+](=O)[O-])o3)sc2c1` was tested. Which Potency did it give?
**A.** Its Potency is inconclusive: 25.1 µM [inhibitor, full curve].

**Q.** Which Potency does the source give for `CCN(CC)C(=O)CC(c1cc(OC)c(OC)c(OC)c1)c1c(OC)cc(OC)c2c(-c3ccccc3)cc(=O)oc12` (stereo unspecified) here?
**A.** The Potency was active: 39.8 µM.

**Q.** For `CSCC[C@H](NC(=O)C(C)Oc1ccc(Cl)cc1)c1nc2ccccc2[nH]1` (stereo partly specified), which Potency is on record?
**A.** Its Potency is inconclusive: 0.224 µM [inhibitor, partial curve, poor fit].

**Q.** `Cn1c(/C=C/c2ccc(Cl)cc2Cl)c([N+](=O)[O-])c(=O)n(C)c1=O` was tested. Which Potency did it give?
**A.** The Potency was inconclusive: 79.4 µM [inhibitor, partial curve].

**Q.** With `O=C(CCCN1C(=O)/C(=C/c2ccc3c(c2)OCO3)SC1=S)Nc1cccc(C(=O)O)c1` as the molecule, how does the Potency read?
**A.** Its Potency is inconclusive: 89.1 µM [inhibitor, single point].

**Q.** Which Potency does the source give for `COc1ccc(OC)c(-c2nnc(SCC(=O)N3CCCC3)o2)c1` here?
**A.** Its Potency is inconclusive: 100 µM [inhibitor, partial curve, poor fit].

**Q.** With `COc1ccc(CNC(=O)C(=O)NCc2cccnc2)cc1` as the molecule, how does the Potency read?
**A.** Its Potency is inconclusive: 89.1 µM [inhibitor, partial curve, poor fit].

**Q.** `Nn1cc(-c2ccccc2)nc1SCC(=O)Nc1ccc2c(c1)OCO2` was tested. Which Potency did it give?
**A.** The Potency was inconclusive: 89.1 µM [inhibitor, partial curve, poor fit].

**Q.** For `CNC(=O)COc1ccc(Nc2nnc(-c3ccc(C)c(S(N)(=O)=O)c3)c3ccccc23)cc1`, which Potency is on record?
**A.** Its Potency is active: 39.8 µM.

**Q.** For `CCc1ccc(NS(=O)(=O)c2ccc3[nH]c4c(c3c2)CCCCCC4)cc1`, which Potency is on record?
**A.** The Potency was inconclusive: 20 µM [inhibitor, partial curve, poor fit].

Reference: PubChem BioAssay AID588591 (National Center for Advancing Translational Sciences (NCATS), 2011)
